Drawing on the supplement of paper PMC4604168 (melanoma cell lines), this text covers cell count for ten compounds.

Some of the results follow. Repeats are few or missing, and single values can be far off.
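Note: cells treated in 1,536-well plates, then fixed and DAPI-stained, with nuclei counted from automated high-throughput microscope images.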

The assay deals with COLO800. In words: cell count relative to DMSO control; melanoma cells; higher = more viable cells. The note with it: library dose: standard library concentration; 72 h; first compound 2 µM.
For the compound `Cn1sc(=O)n(Cc2ccccc2)c1=O` + C[C@]1(O)C[C@@H](c2nc(-c3ccc4ccc(-c5ccccc5)nc4c3)c3c(N)nccn32)C1 [OSI906] (partner dose 2 µM), the cell count amounted to 29.3%.

On to `Cn1sc(=O)n(Cc2ccccc2)c1=O` + C#Cc1cccc(Nc2ncnc3cc(OCCOC)c(OCCOC)cc23)c1 [erlotinib] (partner dose 4 µM), for which the cell count turned out to be 48.8%.

`C[C@@H](N)c1ccc(C(=O)Nc2ccnc3[nH]ccc23)cc1` + NC(=O)Nc1cc(-c2cccc(F)c2)sc1C(=O)N[C@H]1CCCNC1 [AZD7762] (partner dose 0.1 µM) registered a cell count of 72.4%.

`Cn1sc(=O)n(Cc2ccccc2)c1=O` + Nc1cccc2c1CN(C1CCC(=O)NC1=O)C2=O [lenalidomide] (partner dose 5 µM) registered a cell count of 65.8%.

`Cn1sc(=O)n(Cc2ccccc2)c1=O` + Cc1cc(N2CCOCC2)cc2[nH]c(-c3c(NC[C@@H](O)c4cccc(Cl)c4)cc[nH]c3=O)nc12 [BMS536924] (partner dose 1 µM) yielded a cell count of 15.3%.

Consider `C[C@@H](N)c1ccc(C(=O)Nc2ccnc3[nH]ccc23)cc1` + Cn1sc(=O)n(Cc2ccccc2)c1=O [TDZD-8] (partner dose 2 µM), for which the cell count is 52.8%.

Take `CCCCCCCCCCCCCCCCCCOP(=O)([O-])OC1CC[N+](C)(C)CC1` [Perifosine] + C[C@@H](N)c1ccc(C(=O)Nc2ccnc3[nH]ccc23)cc1 [RKI983] (partner dose 2 µM): the cell count is 63.9%.

With `CCCCCCCCCCCCCCCCCCOP(=O)([O-])OC1CC[N+](C)(C)CC1` [Perifosine] + CCCS(=O)(=O)Nc1ccc(F)c(C(=O)c2c[nH]c3ncc(Cl)cc23)c1F [PLX4720] (partner dose 0.4 µM), the cell count was 78.4%.

Turning to `CCCCCCCCCCCCCCCCCCOP(=O)([O-])OC1CC[N+](C)(C)CC1` [Perifosine] + Nc1ncn([C@H]2C[C@H](O)[C@@H](CO)O2)c(=O)n1 [decitabine] (partner dose 0.5 µM), the cell count is 88.7%.

Regarding `Cn1sc(=O)n(Cc2ccccc2)c1=O` + CNC(=O)c1cc(Oc2ccc(NC(=O)Nc3ccc(Cl)c(C(F)(F)F)c3)cc2)ccn1 [sorafenib] (partner dose 2 µM), the cell count is 158%.
